Molecules are shown by their SMILES. Some of the results follow. Shown are side measurements of this screen, not its main read-out; they come without a call.

Holding throughout (assay): Primary Screen for Target Class Profiling of Small Molecule Inhibitors of Methyltransferases
The target in assay [1] is Glycine N-methyltransferase (Homo sapiens) (UniProt Q14749). The note with it: purified enzyme, MTase-Glo SAH luminescence; measured here: GNMT inhibition; at 40 µM; stronger effect = lower value. The method, boiled down:
(§1)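 Each enzyme was assayed with SAM and its substrate. SAH formation detected by MTase-Glo luminescence; single-point 40 uM screen[…].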

The target of assay [2] is Guanidinoacetate N-methyltransferase (Homo sapiens) (UniProt Q14353). The note with it: purified enzyme, MTase-Glo SAH luminescence; measured here: GAMT inhibition; at 40 µM; stronger effect = lower value. The method, boiled down: as §1
The target of assay [3] is Histamine N-methyltransferase (Homo sapiens) (UniProt P50135). Particulars: purified enzyme, MTase-Glo SAH luminescence; measured here: HNMT inhibition; at 40 µM; stronger effect = lower value. The method, boiled down: as §1
The target in assay [4] is Nicotinamide N-methyltransferase (Homo sapiens) (UniProt P40261). Particulars: purified enzyme, MTase-Glo SAH luminescence; measured here: NNMT inhibition; at 40 µM; stronger effect = lower value. The method in brief:
as §1

The target of assay [5] is Phenylethanolamine N-methyltransferase (Homo sapiens) (UniProt P11086). The note with it: purified enzyme, MTase-Glo SAH luminescence; measured here: PNMT inhibition; at 40 µM; stronger effect = lower value. The method in brief: as §1
% is set by controls: 0 for no effect and ±100 for the full control effect.

In the case of `COC(=O)C1=COC(O[C@@H]2O[C@H](CO)[C@@H](O)[C@H](O)[C@H]2O)/C(=C\COC(=O)c2ccc(OC3OC(CO)C(O)C(O)C3O)c(OC)c2)C1CC(=O)OCCc1ccc(O)cc1` (stereo not given in full), the activity change, negative = inhibition is 1.57% in assay [1]; 5.9% in assay [2]; 10.1% in assay [3]; -4.6% in assay [4]; 3.5% in assay [5].

Regarding `CCCCN1C(=O)c2cc(C(=O)NCCc3ccc(OCC)cc3)nn2CC1(C)C(=O)NC1CCCC1` (stereo not given), the activity change, negative = inhibition is 2.61% in assay [1]; 1.73% in assay [2]; -17.4% in assay [3]; 1.99% in assay [4]; 0.194% in assay [5].

In the case of `CC(=O)N1CCc2cc(Br)c(S(=O)(=O)NCCN3CCN(c4ccccc4F)CC3)cc21`, the activity change, negative = inhibition was -8.82% in assay [1]; -0.956% in assay [2]; -12% in assay [3]; -13.1% in assay [4]; -9.86% in assay [5].

As for `CCn1c(=O)n(CC)c2cc(S(=O)(=O)NCc3ccccc3Cl)ccc21`, the activity change, negative = inhibition in assay [1] is 2.23%; in assay [2], 1.23%; in assay [3] it was 1.5%; in assay [4], -10.2%; in assay [5], -0.251%.

Regarding `Cc1nc(C(=O)N2CC(F)(F)C[C@H]2c2nnc(C3CC3)o2)co1`, the activity change, negative = inhibition was 0.656% in assay [1]; -0.98% in assay [2]; 1.54% in assay [3]; 3.22% in assay [4]; 0.354% in assay [5].

Regarding `CCCn1c(=O)c2ccc(Cl)cc2n2c(=O)n(Cc3ccccc3)nc12`, the activity change, negative = inhibition was 6.21% in assay [1]; 0.084% in assay [2]; 12.6% in assay [3]; 6.34% in assay [4]; 5.81% in assay [5].

As for `CCn1nc(-c2cccc(-c3ccnn3C)c2)nc1N(C)C`, the activity change, negative = inhibition is -4.47% in assay [1]; -6.38% in assay [2]; -6.56% in assay [3]; -9.74% in assay [4]; -9.11% in assay [5].

Take `Cc1nc(C)c(C(=O)N2CCCCCCNC(=O)CC2)s1`: the activity change, negative = inhibition in assay [1] is 1.43%; in assay [2], 1.99%; in assay [3], 0.883%; in assay [4], 4.71%; in assay [5], 1.17%.

For the compound `Cc1ccc(NS(=O)(=O)c2cc3c(cc2C)n(C)c(=O)n3C)c(Cl)c1`, the activity change, negative = inhibition in assay [1] was 4.34%; in assay [2], 0%; in assay [3], 3.7%; in assay [4] it was -2.92%; in assay [5], 4.07%.

On to `CN1CC2(CCN(Cc3ccc(C#N)cc3)CC2)CC(c2ccccc2)C1=O` (stereo not given), for which the activity change, negative = inhibition in assay [1] is -16.8%; in assay [2] it was -8.53%; in assay [3], -4%; in assay [4] it was -6.84%; in assay [5], -9.42%.

With `CN(Cc1ccc(N2CCNC2=O)cc1)CC1CCCN(CCc2ccc(F)cc2)C1` (stereo not given), the activity change, negative = inhibition in assay [1] is -2.51%; in assay [2], -1.85%; in assay [3], -14.8%; in assay [4], -4.83%; in assay [5] it was -1.68%.

Take `O=C(CC1CCCC1)N1CCC(c2noc(-c3cnccn3)n2)C1` (stereo not given): the activity change, negative = inhibition in assay [1] was 0.289%; in assay [2], -1.78%; in assay [3] it was 1.85%; in assay [4], -9.65%; in assay [5] it was -3.26%.

As for `CCOCCCNC(=O)C1(C)Cn2c(ccc2-c2ccco2)C(=O)N1c1ccc(OC)cc1` (stereo not given), the activity change, negative = inhibition is -4.34% in assay [1]; 4.69% in assay [2]; -0.947% in assay [3]; -1.22% in assay [4]; -1.55% in assay [5].

Regarding `CC(C)S(=O)(=O)c1ncc(CN(C)Cc2cnn(C)c2)n1CCc1ccccc1`, the activity change, negative = inhibition in assay [1] was -1.44%; in assay [2], -0.531%; in assay [3], 0.124%; in assay [4], 0.994%; in assay [5], 0.354%.

On to `CC(C)Cn1c(=O)c2ccccc2n2c(SCc3ccc(F)cc3)nnc12`, for which the activity change, negative = inhibition in assay [1] is 0.497%; in assay [2], 4.76%; in assay [3] it was 9.11%; in assay [4] it was -7.67%; in assay [5] it was 9.63%.

In the case of `Cn1c(=O)c2[nH]c(-c3ccc(S(=O)(=O)O)cc3)nc2n(C)c1=O`, the activity change, negative = inhibition in assay [1] is -53.8%; in assay [2], 7.78%; in assay [3] it was 0.456%; in assay [4], -6.66%; in assay [5] it was 7.36%.

For `COc1cccc([C@H]2Nc3ccc(S(=O)(=O)Nc4ccc(C)c(C)c4)cc3[C@H]3C=CC[C@H]32)c1OC`, the activity change, negative = inhibition in assay [1] is -14.5%; in assay [2], -1.12%; in assay [3] it was -13.6%; in assay [4], -17.3%; in assay [5], -18.2%.

As for `CCCN1C(=O)c2c(C(=O)Nc3cccc(C)c3C)ncn2CC1(C)C(=O)NC1CCCC1` (stereo not given), the activity change, negative = inhibition is -0.82% in assay [1]; 0% in assay [2]; 5.3% in assay [3]; 6.49% in assay [4]; 9.08% in assay [5].

On to `CNC(=O)c1cc(C2CC2)nc2c1c(C1CCN(C(=O)C3CCCC3)C1)nn2C` (stereo not given), for which the activity change, negative = inhibition in assay [1] is -2.55%; in assay [2], 0.624%; in assay [3] it was 2.21%; in assay [4], -6.52%; in assay [5], -0.72%.

`COc1ccccc1CNC(=O)C1(C)Cn2nc(-c3ccccc3)cc2C(=O)N1Cc1ccc(OC)c(OC)c1` (stereo not given): the activity change, negative = inhibition in assay [1] was 5.73%; in assay [2] it was 0.648%; in assay [3], 9.24%; in assay [4], -19.4%; in assay [5], 3.5%.

Consider `Cn1c(=O)n(C)c2cc(S(=O)(=O)N3CCCc4ccccc43)ccc21`, for which the activity change, negative = inhibition in assay [1] was 4.63%; in assay [2], 0%; in assay [3], 7.29%; in assay [4], -6.62%; in assay [5], 1.38%.

Regarding `COc1ccc(C(=O)Cn2nc3n(C(C)C)c(=O)c4ccc(C(=O)NC5CCCC5)cc4n3c2=O)cc1`, the activity change, negative = inhibition is -5.14% in assay [1]; -3.02% in assay [2]; 3.26% in assay [3]; -9.19% in assay [4]; -6.46% in assay [5].

For `CC(C)NC(=O)C1CCc2nnc(C(C)(C)C)n21` (stereo not given), the activity change, negative = inhibition in assay [1] is 0.723%; in assay [2] it was -1.83%; in assay [3] it was 1.46%; in assay [4], -0.075%; in assay [5] it was -2.76%.

Take `COc1cccc(C(=O)Cn2nc3n(Cc4ccc(F)cc4)c(=O)c4ccccc4n3c2=O)c1`: the activity change, negative = inhibition in assay [1] was found to be 4.76%; in assay [2], 0.398%; in assay [3], 8.75%; in assay [4], 4.42%; in assay [5], 2.09%.

As to `C=C1CC[C@@]2(OC1)O[C@H]1CC3[C@@H]4CC=C5C[C@H](O[C@H]6OC[C@@H](O)C(O)[C@@H]6O[C@@H]6O[C@@H](C)[C@H](O)[C@@H](O[C@@H]7O[C@H](CO)[C@@H](O)[C@H](O)[C@H]7O)[C@H]6O)C[C@@H](O)[C@]5(C)C4CC[C@]3(C)[C@H]1[C@@H]2C` (stereo not given in full), the activity change, negative = inhibition in assay [1] is -6.83%; in assay [2], 1.42%; in assay [3], -2.64%; in assay [4], -5.18%; in assay [5] it was -13.9%.

In the case of `CC1CCC(NC(=O)C2(C)Cn3c(cc4occc43)C(=O)N2Cc2ccc(F)cc2)CC1` (stereo not given), the activity change, negative = inhibition was 1.06% in assay [1]; 0% in assay [2]; 6.85% in assay [3]; 1.96% in assay [4]; 2.77% in assay [5].

For `C[C@@H]1CCC2C(C)(C)[C@H](O)[C@H](O)C[C@]2(C)[C@@]12Cc1c(O)cc3c(c1O2)CN(CCCC(=O)O)C3=O` (stereo not given in full), the activity change, negative = inhibition in assay [1] is -1.37%; in assay [2], -2.66%; in assay [3] it was 7.57%; in assay [4], -17.8%; in assay [5], -12.2%.

As for `CCOC(=O)c1cc2n(n1)CC(C)(C(=O)NCCCOC)N(c1ccccc1C)C2=O` (stereo not given), the activity change, negative = inhibition in assay [1] came to 4.36%; in assay [2], 4.14%; in assay [3] it was 6.41%; in assay [4], 3.11%; in assay [5], 2.32%.

The record behind these values is PubChem BioAssay AID1745853 (National Center for Advancing Translational Sciences (NCATS), 2022).
